In article PMC12040169 (PLOS Biology, 2025):
The list shows a part of the results.

test system: T1, C. trachomatis L2/434/Bu expressing GFP (CTL2-GFP); set-up: species or system HeLa; C. trachomatis total inclusion area by high-content imaging, normalised to DMSO; settings: total inclusion area; 28.5 h, 10 µM; inhibitor
T1 construct: L2/434/Bu GFP intracellular growth in HeLa cells
Method in brief: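 High-content imaging followed the bulk GFP/resorufin measurement: fixed, Hoechst-stained cells were scored for GFP inclusions and host nuclei per well. Total inclusion area and count served as growth proxies, nuclei number as the viability proxy. MIC calculation matched the bulk assay.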

In order of rising “% of control remaining” value:
1. O=S(=O)(c1ccccc1)N1CC2(CCNCC2)c2ccccc21 [CBK137413]  6.75
2. c1ccc2c(-c3cc(Nc4ccc5[nH]ccc5c4)ncn3)cccc2c1 [CBK037815]  12.2313
3. CC(Cn1cccn1)NCC(=O)NC1(C#N)CCCCC1 (centres unmarked) [CBK304845]  21.5697
4. Cc1cc(NS(=O)(=O)c2ccc(Nc3nc(-c4cccs4)cs3)cc2)no1 [CBK262504]  23.5503
5. O=C(CSc1nnnn1C1CC1)Nc1ccc(CN2CCOCC2)cc1 [CBK305857]  30.192
6. N#Cc1ccnc(SCC(=O)Nc2ccc(CN3CCOCC3)cc2)c1 [CBK306010]  34.2463
7. COc1c(C(N)=O)c(O)c(OC)c2occc12 [CBK016255]  44.4008
8. Cc1cc2c(s1)c1cnn(CC(=O)NC3CCCC3)c(=O)c1n2C [CBK284189]  50.9344
9. Cc1ncsc1CCN(C)C(=O)Cn1nc(C)c2ccccc2c1=O [CBK306893]  51.1699
10. FC(F)(F)c1cccc(OCCOc2nccnc2N2CCNCC2)c1 [CBK014518G]  57.0642
11. CSc1cccc(NC(=O)N2CCN(C(=O)C3CCCO3)CC2)c1 (centres unmarked) [CBK043283]  58.8006
12. C[C@@H](Nc1nccnc1-c1cccc(F)c1)c1ccccc1 [CBK036733]  61.6282
13. CC(C)NC(=O)Nc1ccc(C(=O)N(CC#N)C2CC2)cc1 [CBK306120]  62.7392
14. CC1CCCCN1CCNC(=O)c1ccc(Cn2c(=S)[nH]c3ccccc3c2=O)cc1 (centres unmarked) [CBK265674]  67.9158
15. CCC(CO)Nc1cncc(-c2cccc(O)c2)n1 (centres unmarked) [CBK037777]  68.5095
16. O=C1COc2ccccc2C/C=C/CC2(CCN(CC(=O)N3CCCC3)CC2)CN1 [CBK292126]  69.4672
17. CC1CNCCC1n1nc(-c2cccs2)ccc1=O (centres unmarked) [CBK284221]  72.6187
18. Nc1ncc(-c2cccc(F)c2)nc1NCC1CCOCC1 [CBK063860]  73.0572
19. CCc1ccc(NS(=O)(=O)c2cnn(CC)c2)cc1 [CBK270314]  74.1966
20. O=C(/C=C/c1ccccc1)ONC(=O)c1ccc(Cl)cc1 [CBK263702]  74.8268
21. CCN1CCC2CCC(C1)N2Cc1ccc(Oc2cnccn2)cc1 (centres unmarked) [CBK304034]  75.7969
22. O=C(O)C1CNC(=O)N1C(=O)OCc1ccccc1 (centres unmarked) [CBK057462]  77.0996
23. CCc1nn(C)cc1CN1CCOC(c2nc(C(C)(C)C)cs2)C1 (centres unmarked) [CBK304513]  77.2593
24. O=C(CC1(C(F)(F)F)NCCN1)c1cccc([N+](=O)[O-])c1 [CBK263443]  79.9499
25. CC(Nc1ccc2[nH]c(=O)[nH]c2c1)C(=O)N1CCN(c2ccccc2)CC1 (centres unmarked) [CBK296748]  80.1484
26. Cc1cc2ncc3c(n2n1)CC1CCC3N1Cc1ccc(F)c(F)c1 (centres unmarked) [CBK284378]  80.2295
27. CCn1cc(C2CN(S(=O)(=O)c3cccc(C)c3Cl)CCO2)cn1 (centres unmarked) [CBK304226]  81.0712
28. O=c1nc(NC2CCCCC2)sc2ncccc12 [CBK067024T]  81.6837
29. COc1ccccc1-c1nccnc1OCc1cccc(OC)c1OC [CBK106825]  82.8175
30. O=C(Nc1ccc([N+](=O)[O-])cc1)Nc1ccc(N2CCOCC2)c2nonc12 [CBK266885]  83.1827
31. Cc1ccccc1CN1CCC(O)(c2cccnc2F)CC1 [CBK284376]  84.1393
32. O=[N+]([O-])c1ccn(C2CC(O)C(CO)O2)c1 (centres unmarked) [CBK201229]  84.3176
33. CC(=O)Nc1cccc(-n2nnnc2SCCCCCF)c1 [CBK306164]  86.1079
34. O=C(NC1CCc2ccccc21)c1cnc(-c2ccc(Cl)cc2)c(-c2ccc(O)cc2)c1 (centres unmarked) [CBK036629]  86.4191
35. O=S(=O)(Nc1ccc(Cc2ccncc2)cc1)N1CCCC1 [CBK268263]  87.7897
36. Nc1c(Cc2c(Cl)cccc2Cl)c(=O)n2n1CCC2 [CBK088948]  87.9625
37. O=C(c1cccc([N+](=O)[O-])c1)N1CCN(S(=O)(=O)N2CCOCC2)CC1 [CBK267469]  88.1594
38. CN1CCN(C(=O)C[C@@H]2CCNC[C@@H]2Cc2cc(CC3CCCCC3)on2)CC1 [CBK289151]  88.3645
39. O=C(Cn1ncc2ccccc2c1=O)NNC(=S)NC1CC2CCC1C2 (centres unmarked) [CBK267892]  88.5414
40. CC(=O)Nc1cc(NC(C)=O)c(C)c(C(=O)O)c1 [CBK286623]  89.1897
41. CN(CC1(C)COC1)C(=O)c1cn2cc(Cl)ccc2n1 [CBK281721]  90.2314
42. O=c1ccc2cc(S(=O)(=O)Nc3ccc4[nH]ccc4c3)ccc2o1 [CBK062503]  92.0909
43. Cn1c(=O)c2c(nc(CN3CCC(Cc4ccccc4)CC3)n2CC(=O)c2ccccc2)n(C)c1=O [CBK236846]  92.2096
44. FC(F)(F)c1nc2ccccc2nc1SCc1cccs1 [CBK103728]  92.226
45. O=C(O)CC1(O)C(=O)N(Cc2ccccc2)c2ccccc21 (centres unmarked) [CBK286673]  92.2452
46. Cc1ccc(Oc2ncccc2NC(=O)CN2CCC(NC(=O)c3ccccc3)CC2)c2c1CCC2 [CBK074715]  93.1532
47. CCc1onc(C)c1C(=O)NC(Cc1ccsc1)c1nccs1 (centres unmarked) [CBK285142]  93.9022
48. O=S(=O)(Nc1cccc(Cl)c1Cl)c1ccc(Cl)c(Cl)c1 [CBK017446]  94.6088
49. C#CCOc1cc(Br)c(/C=C(/C#N)c2ccc([N+](=O)[O-])cc2)cc1OCC [CBK266617]  95.2706
50. CC(C)(C)OC(=O)N1CCC(CNS(=O)(=O)c2ccc3c(c2)OCCO3)CC1 [CBK076971]  96.4259
51. O=C(CSc1ccc2nnc(-c3ccccn3)n2n1)N1CCCCC1 [CBK287621]  96.5552
52. O=C1CC2(C(=O)N1Cc1ccccc1)C(=O)N(Cc1csc(-c3ccccc3)n1)c1ccccc12 (centres unmarked) [CBK075673]  97.5151
53. O[C@@H]1C[C@@H](c2nc(-c3ccc4c(c3)OCO4)no2)N(Cc2cc3ccccc3o2)C1 [CBK288868]  98.0706
54. CCOC(=O)c1cnc2cc(C)ccn2c1=O [CBK086650]  98.1707
55. OCC12COC3c4ccccc4C(OC1)N32 (centres unmarked) [CBK006347]  99.2653
56. CN(C)CCN(C)c1cncc(-c2cccc(C(F)(F)F)c2)n1 [CBK065584]  99.2836
57. CC(Cn1cccn1)NCC(=O)N(C)C1(C#N)CCCCC1 (centres unmarked) [CBK305096]  99.5788
58. CCC(C)C(NC(=O)c1ccccc1NC(=O)c1ccc(OC)cc1)C(=O)O (centres unmarked) [CBK296090]  100.233
59. COC(=O)[C@@H]1CN(C(=O)C2CCCC2)CCN1C(=O)c1cccs1 [CBK289609]  100.646
60. CCOc1cccc(C(=O)NC(=S)Nc2nc(C)c(C(=O)OC)s2)c1 [CBK092056]  101.098
61. Cn1c(=O)c2c(ncn2CC(=O)Nc2ccccc2I)n(C)c1=O [CBK133275]  102.725
62. Cc1ccc(CC(=O)Nc2nc(Cc3n[nH]c(=S)n3C)cs2)cc1 [CBK296766]  102.824
63. Cc1nnc(N2C(=O)c3oc4ccc(Cl)cc4c(=O)c3C2c2cccc(OCc3ccccc3)c2)s1 (centres unmarked) [CBK266870]  103.327
64. O=c1[nH]c(-c2cc(Cc3ccccc3Cl)ccc2O)nc2ccccc12 [CBK291220]  103.584
65. CC(C)(C)c1ccnc(N[C@H]2CO[C@H]3[C@@H]2OC[C@@H]3NC(=O)NCc2ccccc2)n1 [CBK289522]  104.772
66. CC1CCc2c(sc(NC(=O)Cn3cnc([N+](=O)[O-])n3)c2C(N)=O)C1 (centres unmarked) [CBK263064]  106.592
67. O=C(c1ccc(O)cc1)c1ccc(C(=O)O)c(C(=O)O)c1 [CBK261075]  106.593
68. Fc1ccc(COc2cccc(CNCc3ccccn3)c2)cc1 [CBK269987C]  107.741
69. CCOc1cc(C=O)ccc1OCc1c(C)no[n+]1[O-] [CBK263449]  108.706
70. CCOC(=O)C1=C(C)NC(=O)NC1c1ccc(-c2cccc([N+](=O)[O-])c2)o1 (centres unmarked) [CBK072102]  109.17
71. CC(C)Cc1nnc(-c2ccccc2Cl)n1CC1CC1 [CBK200097]  110.203
72. c1ccc2cc(-c3cnc(N4CCOCC4)c4nccn34)ccc2c1 [CBK091307]  110.322
73. Cc1nn(C)cc1-c1cncn1CCOc1ccc(Cl)cc1 [CBK281508]  112.219
74. O=C(CCN1C(=O)/C(=C\C=C\c2ccccc2)SC1=S)Nc1ccc(C(=O)O)cc1 [CBK264818]  117.223
75. O=[N+]([O-])c1cccc(-c2cc(NCCc3ccccn3)ncn2)c1 [CBK091087]  120.441
76. CCC1C=CCC(C(=O)O)C1C(=O)Nc1ccc(C(=O)N2CCOCC2)cc1 (centres unmarked) [CBK265798]  122.658
77. Cc1c(NC(=O)CSc2nnc(-c3ccc4ccccc4n3)s2)c(=O)n(-c2ccccc2)n1C [CBK269341]  130.125
78. COc1cc(-c2cnc3[nH]c(=O)n(Cc4ccco4)c3n2)cc(OC)c1OC [CBK064755]  142.62
79. CC(C)[C@@H](CO)Nc1nc(-c2cccc3ccccc23)cnc1N [CBK063725]  148.963
80. CC(=O)c1ccc(-c2cc(N3CCN(CCN4CCCC4)CC3)ncn2)s1 [CBK091169]  172.074
